From paper PMC10726135
The list shows a part of the results. At the low end of the ranking the order means little. The protein was read in a cell extract, so binding may be indirect.

Each sequence was assayed against T1, HNF4alpha8 (COS-7 nuclear extract) (UniProt P41235-5) (assay: protein-binding microarray). Settings: COS-7 nuclear extract on double-stranded Agilent 4x180k PBM; binding buffer, salt, pH and temperature not given; high values mean tight binding; double strand, one strand shown; sequences stand for … in …GCCTAGGGAGATTAGAGTATCGGTCGA.
T1 sequence: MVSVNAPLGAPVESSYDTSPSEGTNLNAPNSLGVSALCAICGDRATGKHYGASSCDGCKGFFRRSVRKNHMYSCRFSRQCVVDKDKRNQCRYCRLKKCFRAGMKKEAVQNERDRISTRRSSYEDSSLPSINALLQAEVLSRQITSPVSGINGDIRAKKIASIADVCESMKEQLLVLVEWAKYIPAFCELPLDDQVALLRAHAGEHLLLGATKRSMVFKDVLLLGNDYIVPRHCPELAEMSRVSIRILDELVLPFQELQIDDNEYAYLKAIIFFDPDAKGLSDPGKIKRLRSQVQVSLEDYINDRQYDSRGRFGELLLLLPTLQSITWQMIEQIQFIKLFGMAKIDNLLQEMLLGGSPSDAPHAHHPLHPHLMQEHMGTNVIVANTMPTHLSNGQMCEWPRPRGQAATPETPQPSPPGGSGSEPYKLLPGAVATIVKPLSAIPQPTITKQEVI

Row | Sequence | binding signal (log2 normalized intensity)
1 | AAATATTGTCAGTGAGGAATGTGCAAACGG | 0.32
2 | TCTTGGCCTCCCCCTTCTGAGTCTCCAATG | 2.82
3 | GACCCCAGGGCAAAGTGCATTGGAGGCCAG | 4.14
4 | GGAAACAATGGCCTTGCTGCGGATCAAAGG | 2.54
5 | CTCAATGCAACCAGTTGGTGGGTCAAGGTG | 1.58
6 | AGAGAAAGGACCAGTTGAGTGCAAAGTCCC | 3.85
7 | AACAGACAAAATTAAGTGATTTGCCCAATA | -1.13
8 | GGATTCCTGATGCGTTCAAGGAACAGCCAG | -1.34
9 | TTGAGTCAACACACCTGTGGGTAATTAATC | 0.464
10 | GCCAGGCAGAGCAGGTTCTCAGGCCAATCA | -1.33
11 | GATGACCCCTCTCTACTGGTAAGCAAATAT | 2.09
12 | GGATATTTGATCAAAGGTCAGCTCTCCTTT | 5.11
13 | CTAGGTAAGCCCACTAGGGAATGAAGCTAA | -1.2
14 | CTTAGAATCGAATTGTGAAACTCAGAATCA | -0.796
15 | TGCCATGGGCCTGGCTGAGCCTGGGCCGCC | -1.38
16 | CCATTGCTTTCTTCCAAGGCTGCAAGCAAA | -1.37
17 | AGAATTCCCATCCCACTAGGTGGCGCTGTT | -1.29
18 | ACCTTTGCCCTGTTGTCTTTGCCCAAACCA | 2.89
19 | GATTCTAGGGCCCATGCCCTTAGCCACTGC | 0.179
20 | CCCTTTGTACCTGGGGCAAACATCAATTTA | 1.29
21 | CATTTTTTTCCACCCTCCCCTCCCCCTCCT | 6.32
22 | CTCACGGACCCTGTTACCACACCACAGCGG | -1.29
23 | GTTAGGGTGAAGTAAAGTTATACTTCTATG | 0.508
24 | GAAGCTGCACACATGTCAAAGGTCAAAGGG | 6.06
25 | GCCTCCATTAATTAACCTTTGAGCTGGGTG | 5.22

Row | Sequence | binding signal (log2 normalized intensity)
26 | TCTAAGACATAACACAGGTGACCTTTGCTC | 8.96
27 | ATGCTTCCCAGAAAGAATGAGCGGGAACCT | -1.27
28 | ACGAATAATCATATCTGCCTCAGTAGTAGT | 1.01
29 | TCAAATTCCTGGGCTCAAACAATCCTCCCA | -1.25
30 | GGGGGCGAGCATGGCCGCTCCGCGAGGTGA | -1.36
31 | ACCATTGCTTCAGCAAAACCAGTTTGTCTG | -1.33
32 | CTCTGTTACACAAAATCGCCACTACAAAGG | -1.16
33 | GAGCACCTGGATAAGCCAGATAATTTGTGC | -1.05
34 | AGTGAGTGAAACATCCCACTCAAAGGTCAG | 4.26
35 | TGCTTATCTTCTCTTTTACTGTACTTCTTT | 1.68
36 | ATGAGGGCAGGATGCATGCACTTCATTGTG | 0.337
37 | AAAACAGAATGGTCTGTATTTCAGAGACTA | -0.678
38 | TTACTGCAGAGAAGAAGCTTTGCCATTGTT | -0.992
39 | CTGACGCCATCTGGCGTCCCCCACCTGGAA | 4.47
40 | GACCACCTGGTGGACCCAGCTGGTAAGTGC | 2.82
41 | ATTGGTTGCAGAAGGCAGCCAAACAGAGGC | -1.23
42 | AGGATCTGTGTTATGCTTGCAGGTGTCAGG | 1.71
43 | GAATTTGGACTTTGCACTAAAAGCCATGAG | 6.28
44 | GACCTGGACTCCCAAGATGGATTGGGTCCA | 2.73
45 | GGCCCTCAGCTGAGATAGCAGAGTCCAGTG | 2.94
46 | GGAAGGCAGTAAGAGAGAAAGAAACAGGGG | -1.28
47 | TCCAGGAGGTCGCTGGAAAGGCGGCAGGCT | -1.35
48 | GGCTCCGATAAACCCAGGCAATGACTCCAA | -1.08
49 | CTTGCCATTGGAGGTCACCCTGTGTCAGCG | 1.47
50 | TAGGAAGCAACAGACTGCTGTGTTACTAGA | -1.26

Row | Sequence | binding signal (log2 normalized intensity)
51 | TGAATTGGTCATAATTCTCAAACTTTATGG | 1.09
52 | TGGCATCCCTGTGGTATTTGCTCTGTCATC | 1.39
53 | TCCCTGCCAAAGGTCAGAGTTGAACCCTTG | 6.06
54 | TGTGAGACCGGTTCCGCGGTCCGCAGCGCT | -1.31
55 | CCTCCTGAGATAGGTATGATAACCCCCGTC | 4.14
56 | CTGGTGTTTCCCTGTTTGCTTCTGCCCCCT | 5.35
57 | GGGTCAACAGACAAATGAAAGAGCTCAAAT | -1.12
58 | CTGGTTACTAAACACTTACACCTGGGTGCT | -1.11
59 | AGGCAGCCTCAGCCACACGCCCATCTCCAC | -1.36
60 | TATCTTCCAGCCCTGTCTCTCAGGTGTAAC | 1.84
61 | TTTAAACATTCCCACCTAAGACATAAATAT | 1.87
62 | TTGTCAGTGCCCTATACAGACCTTTGTATA | 3.82
63 | GAGGGGGCAGGACAGCAGGAGTGGGAGAAA | -1.28
64 | AGCAGTGTGGACTTTTTCCTGAGGGCAGGA | 1.56
65 | GAACTCTGACCTTTGCCCCCAGCCTCTCAC | 9.22
66 | GGTACTGGAAACTGGGCAAGGTCCATTACG | 3.56
67 | TGGGTTTCGGTGTCATCTAGACCTGGACTT | 3.34
68 | CACGCCTCAAATGAGCTTTTGATGAGCCTA | -1.4
69 | AGATTAGATTGCTCAGAGGCACAGTCTGCT | -1.38
70 | GATCCTCACAGTGCCTCTGCAAGTTGGCCT | 1.19
71 | CTGAGATTCAGAATAGTTAAGTAACGTGTC | 0.789
72 | GACTCTGAGACCTGTGATGGTCACTATCTG | 0.47
73 | CTTGCAGGTGTCAGGGGTCAATGTGCACAT | 6.01
74 | TCATTTGGCTTCCGTGCCTGCATGGGCTGT | -1.22
75 | AATGGGCAAAGGTCACAAGAGGTGCTGTGT | 5.5

Row | Sequence | binding signal (log2 normalized intensity)
76 | GGTCAGCTCATTCCCTAGGGCTCGGCATTC | -1.31
77 | TTTCCCTCTGTGCCCGAGCTGTCTTATCTG | 0.988
78 | TTTAAAGAACTGGGCGAGCCCTCTGATCTG | -1.37
79 | TTGTATGTCCAAGGGTCACTCGACATTCAT | 3.76
80 | TAAGATTCTGGTCAAAGGTCAATGAAGCTC | 6.64
81 | AAATGTTATCATTACTTCTCAACTGATATG | 1.29
82 | GAAAGGAGACTAAAGGTCAAAACCACCTAT | 3.4
83 | TGAGTGGGTTCACTTTGAGCAAGATAATGA | 0.945
84 | CTGGGCCCCTCGGCCGCTCCCTCCCCTCCT | 5.19
85 | TCCTGCCTTGGAGAAGTGAACTTTGCCCTC | 10.7
86 | CCAGCAAACGTTCTTCTCTAACCCTCCTTT | 0.922
87 | GGATGTGGGACTTAATCCTTGTCTGTTTGG | 1.49
88 | CTAAGAGCCTACTGAGAGGAAAGGGGTTAA | -1.26
89 | GCTGATCACTTAAAATGAGACTTCCCAGCT | -1.27
90 | ATGGCTAATCAGTATTGAGGCCGGAGGGCA | 1.6
91 | GGACGGGTAAGAGTCGTGGCCTTGCCATTG | -0.856
92 | CAGCCACAAAAACCAAAGGTCACTTCGCAT | 4.17
93 | GGACTATCCCCGTCCGCGGAAGCACACACG | 0.0414
94 | TTCCCATTCATAAAATTACGCCACAGAGTT | -1.29
95 | GTTGTTTTTAAAAGGCTGCCTTTCCCAGAT | -0.901
96 | AAGGGCCCATGGGCTTCAGGGTAAATCCCG | -0.903
97 | TGCAGGTAAAACTACATTTCCAAGACCTCT | -1.35
98 | CAGCCACATTCCATGAGCTGGCCTCACTAA | -1.5
99 | CTATGCCTTGAACTTTAAGGCACCTGCTCT | 0.494
100 | GAGCTCGCGCCGGGCACTGATAACGCCCGC | -1.35

Row | Sequence | binding signal (log2 normalized intensity)
101 | GCTCTCTGCTCTTACCTGCCAAATATTGGG | -1.28
102 | CCATACCTCTTGCGTGTTATCTATGGAACA | 1.67
103 | GTGGTTTGCTACACTGCCAAAGTTCAACCA | 3.07
104 | GGGGTGGGAGTGCAGAGAGAGAGGGAGACA | -1.31
105 | ATCTAACAAGAAGTCTGAAGGCAGGGCTTT | -1.33
106 | GTGATACCAGGGGTCATTTTATGGGAAAAC | 2.43
107 | CCCTCCGCAACCTTTACTCCTTGTGGTCAA | 3.06
108 | TCTGGGATGTTGGGAGGAGTGGACTTTGAT | 6.84
109 | CTGGGATATCAGGTATTGCCCAGTATTGAT | 0.695
110 | CTGTTGGGGAGCAAAGGTTAGCAAGGGCCC | 3.47
111 | CCATAACCCTCAGCTCCTCTCCTCCATGGC | -0.777
112 | TTTGTTGCCTCTTTTCTGCTTTTGGAATTT | 3.37
113 | TTCACATTCCAGTGTTTCAAAGGAGTGTCT | 0.818
114 | ACCTTGTCCCTGGATTGTGTTGCACTGTTT | 2.15
115 | CCTCTTGCGTGTTATCTATGGAACATGGAC | 2.5
116 | GTTTACTCATGTGGTCCTAAGACTGACCTT | 4.61
117 | AAGTTATCTTGAGACCTCAAGGGGAGAGGA | -1.34
118 | AGAGGAAAAAGTCCCTGGTCCCATAGGAAA | -1.28
119 | CTCAACACTGGCTTCTCTGGCCTAGTAAGA | -1.3
120 | TTTCCAGCAAATCCCAATTCACTGACACAA | -1.3
121 | ACATGAGGTAGAGGGACACTGATAACACTG | -1.27
122 | TTCTCCTGTGATCTGGATTTTCAGGTTCCC | 1.51
123 | ACAGCCCTCCAACTATGCTAAGAATGCGAA | -1.27
124 | TTAAACACGTTTTATTAGGGGTCAGCAAAG | 2.84
125 | ACCATGCCTATAAATTGCCTGGCTTCAATA | -0.93

Row | Sequence | binding signal (log2 normalized intensity)
126 | CTTAGGTACTTTTCTGTTTGTCTTACTGTG | 1.59
127 | AGAGAAGGAGCCAGAGCTTTGGGAAAAGTG | -1.26
128 | AAGCTCTTTCCCTCCACCAAGTTTCCCACA | 2.17
129 | TTGAAGTTTTGGCCAACAGAGGGGTCAGAG | 2.98
130 | TGCAAGGGCAGCTCCGTTTACCTAGAGGCA | -1.44
131 | AATTTCTCAGATGCCAGCTAAGATCAGTAG | -1.15
132 | TGGCCTTTGGCTGTTCGATGTATACAGTAT | 1.64
133 | TGACAGCATGTTCGGCTGAGACCTGATCAG | 0.596
134 | CGGCAGCACAAGGCGGTAGCCATGGCGGAG | -1.42
135 | TTCCTTAAGATTAGTTCTTTGTAGGAAGGC | 0.665
136 | GTCTGCTGCCCAGACACACAATATTATGTT | -0.76
137 | GGTAGAGTCTAAGGAGGCAGTAAGATAAGG | -1.38
138 | CAGAGAAGATTAGCTCACAGGAAAGGAGAC | -1.23
139 | GGCGAGTGTGCAATTAGAGCAAAGGTTACT | 3.57
140 | GTCTTATTCAGCCTCATTGATTTGAACATT | 2.69
141 | GGAAACCGCGATTAAAAATGGAACAGTAAG | -1.45
142 | AGGCTGAAGAAGTTGCTCAGTGTTCCACAG | -1.36
143 | AAGACTGCAGCAAAGTCCTCCAACTGCCAC | -1.32
144 | GGCAGTGGGACAATGAAGCCTAAATGATAA | -1.38
145 | TCTGTAGTGTTGCTCAAGTCTCCTGTTTTC | 1.05
